# Test results: PubChem BioAssay AID1508649 (National Center for Advancing Translational Sciences (NCATS), 2021)
# Screen size: about 43,000 compounds; about 830 (1.9%) were called active. The shares of active, inactive and inconclusive entries below differ from those in the screen. Rule for the calls: active = clear falling dose curves in both reporters; inconclusive = both reporters move, but less clearly or upward; inactive = either reporter flat; the % is the NLuc reporter signal. Potencies of inconclusive entries are left out as doubtful fits.
# Assay: Cell-based coincidence reporter assay to measure PMP22 gene transcription in S16 Pmp22-F2sN cells - Primary screen
# Conditions: S16 Pmp22-F2sN Schwann cells (luciferase reporters placed in the Pmp22 gene), FLuc/NLuc coincidence luminescence, 24 h; measured here: NLuc reporter readout, at 57.5 µM (top of the series); activity change, negative = inhibition: at the top concentration
# Method in brief: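 Transcriptional readout in edited S16(c9) cells: two luciferases reported from the Pmp22 locus, measured in turn after 24 h compound incubation.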
# % is set by controls: 0 for no effect and ±100 for the full control effect; potency is the fitted concentration of half-maximal effect; tags give direction and shape of the fitted curve.
Compound,Potency,"activity change, negative = inhibition"
CCc1ccccc1NC(=O)Cc1ccc(NC(=O)N2CCCCc3ccccc32)cc1,"inconclusive [phenotype inactive, single point]",
Cc1nnc(NC(=O)CSc2nccn2Cc2ccc(Cl)cc2)s1,"inconclusive [phenotype inactive, single point]",
CSc1ccc(CNC(=O)C2CCN(c3nc4ccccc4nc3C(F)(F)F)CC2)cc1,"inconclusive [phenotype inactive, single point]",
Cn1nc(C(=O)NCc2ccccc2Cl)c2c1-c1ccccc1S(=O)(=O)C2,"inconclusive [phenotype inactive, single point]",
Cc1cccc(CNC(=O)c2ccc3oc(=O)n(Cc4ccccc4)c3c2)c1,"inconclusive [phenotype inactive, single point]",
COc1ccc(-c2nc(CN3CCC(C(=O)NCCc4ccccc4)CC3)c(C)o2)cc1OC,"inconclusive [phenotype inactive, single point]",
CCOC(=O)c1ccc(N2C(=O)c3[nH]nc(-c4ccc(OCC)cc4)c3C2c2cccs2)cc1 (centres undefined),"inconclusive [phenotype inactive, single point]",
COc1ccc(-c2nc3scc(CCNC(=O)c4cccc(Br)c4)n3n2)cc1,"inconclusive [phenotype inactive, single point]",
CC(C)N(Cc1ccccc1)C(=O)C1CCCN(c2ncnc3onc(-c4ccc(F)cc4)c23)C1 (centres undefined),"inconclusive [phenotype inactive, single point]",
CCOC(=O)c1c(C)[nH]c(CCC(=O)Nc2ccc(OC)c(OC)c2)c1C,"inconclusive [phenotype inactive, single point]",
COc1ccc(-c2nc(SCC(=O)Nc3c(C)cc(C)cc3C)n[nH]2)cc1,,inactive: -4.1%
COc1cccc(-c2nc(S(=O)(=O)c3ccc(C)cc3)c(N3CCCCC3)o2)c1,"inconclusive [phenotype inactive, single point]",
CC(C)Oc1ccc(-c2nc3c(C#N)c[nH]n3c2NC2CCCCC2)cc1,"inconclusive [phenotype inactive, single point]",
CCn1cc2nc(SCC(=O)Nc3ccccc3C(F)(F)F)n(Cc3ccc(C)cc3)c(=O)c2n1,"inconclusive [phenotype inactive, single point]",
COc1ccc(NC(=O)c2oc3ccc(S(=O)(=O)N4CCOCC4)cc3c2C)cc1,,inactive: 14.2%
COc1cccc(CNc2cc(C)nc3nc(-c4ccc(C)cc4)nn23)c1,,inactive: -12.2%
O=C(NCC(c1ccco1)S(=O)(=O)c1cccs1)c1ccccc1F (centres undefined),,inactive: 5.97%
Cc1cc(C)n(-c2nnc(Nc3ccc(C)c(Cl)c3)c3ccccc23)n1,"inconclusive [phenotype inactive, single point]",
COc1cc(C2Nc3c(C)cc(C)cc3-c3cc(C)nn32)cc(OC)c1O (centres undefined),"inconclusive [phenotype inactive, partial curve]",
CCn1ccc2c(OCC(=O)Nc3ccccc3C(F)(F)F)cccc2c1=O,active: 18.9 µM,

Compound,Potency,"activity change, negative = inhibition"
COc1cc(-c2noc(-c3ccc(NCc4cccnc4)c([N+](=O)[O-])c3)n2)cc(OC)c1OC,active: 7.08 µM,
Cc1cc(NC(=O)Nc2nc3c(s2)CCCCCC3)ccc1Br,"inconclusive [phenotype inactive, single point]",
COc1ccccc1CCNC(=O)C(=O)NCC(c1ccco1)S(=O)(=O)c1ccc(C)cc1 (centres undefined),,inactive: -15.4%
Cc1cc(NC(=O)CSc2ncc(C(=O)Nc3ccc(F)cc3)c(=O)n2C)no1,,inactive: -0.287%
CCN(CC)CCNC(=O)c1ccc(Cn2c(=O)c3cccn3c3cccnc32)cc1,,inactive: -25.3%
Cc1ccc(-c2nc(CS(=O)CC(=O)N3CCN(c4ccc(Cl)cc4)CC3)c(C)o2)cc1 (centres undefined),"inconclusive [phenotype inactive, single point]",
CCOC(=O)c1ccc(NS(=O)(=O)c2ccc3c(c2)OCCO3)cc1,,inactive: -19.7%
COc1ccc2oc(=O)c(C(=O)Nc3cccc(C(=O)O)c3)cc2c1,,inactive: 8.7%
COc1ccccc1-c1cc2nc(C)c(CCC(=O)NCCc3ccc(SC)cc3)c(C)n2n1,"inconclusive [phenotype inactive, single point]",
Cc1ccccc1NC(=O)Cn1c(=O)n(Cc2ccc3c(c2)OCO3)c(=O)c2ccc(C(=O)NC3CCCCC3)cc21,active: 10.6 µM,
COc1ccccc1CNC(=O)c1cc2cccc3c2n1CC(C)S3 (centres undefined),"inconclusive [phenotype inactive, single point]",
N=c1n(CCN2CCCCC2)c2ccccc2n1CC(O)COc1ccccc1 (centres undefined),"inconclusive [phenotype inactive, partial curve, poor fit]",
CCn1c(=O)c2cc(C(=O)NC3CCC(C)CC3)sc2c2ccccc21 (centres undefined),active: 17 µM,
Cc1cc(C)c(NS(=O)(=O)c2ccc3c(c2)CC(C)N3C(=O)C2CCC2)c(C)c1 (centres undefined),"inconclusive [phenotype inactive, single point]",
O=C(CCC1CCCC1)N1CCc2c([nH]c3ccccc23)C1c1ccc(F)cc1 (centres undefined),"inconclusive [phenotype inactive, single point]",
Cc1ccc(Nc2ccc3cc(S(=O)(=O)N4CCCCC4)ccc3n2)cc1F,"inconclusive [phenotype inactive, single point]",
COc1ccc(NC(=O)c2c(NCc3cccs3)sc3c2CCCC3)c(OC)c1,"inconclusive [phenotype inactive, single point]",
CCc1ccc(N(CC)C(=O)CCn2cnc3onc(-c4ccc(F)cc4)c3c2=O)cc1,"inconclusive [phenotype inactive, partial curve, poor fit]",
COc1ccc2oc(-c3ccc(C)c(NC(=O)c4ccc5c(c4)OCCO5)c3)nc2c1,,inactive: -14.1%
